# According to PubChem BioAssay AID686979 (National Center for Advancing Translational Sciences (NCATS), 2013):
# Out of some 420,000 compounds screened, about 50,000 (12%) were called active. Inconclusive means that the source gave no clear call. Such entries were picked first, then a sample of the others. Calls come from the whole dose curve; as a rule, active = well fitted inhibition curve with a large enough effect; inconclusive = small, poorly fitted or top-dose-only effect; inactive = flat fitted curve, though single readings scatter. No potency is given beside an inconclusive call; the fits are too rough.
# Experiment: qHTS for Inhibitors of human tyrosyl-DNA phosphodiesterase 1 (TDP1): qHTS in cells in presence of CPT; note: nearly all actives have a fitted effect of over 55% in size
# Conditions: chicken DT40 Tdp1-/-;hTDP1 cells + 20 nM CPT, ATP luminescence, 48 h; activity change, negative = growth inhibition: at 46.2 µM (top of the series)
# Outline: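 Chicken DT40 Tdp1-/- cells stably complemented with human TDP1 were seeded at 400 cells/well in medium containing 20 nM camptothecin, exposed to pin-transferred compounds, and grown at 37 °C for at least 48 hr. Viability was read as ATP luminescence.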
# % is set by controls: 0 for no effect and ±100 for the full control effect; potency is the fitted concentration of half-maximal effect; tags give direction and shape of the fitted curve.
Compound,Potency,"activity change, negative = growth inhibition"
CN(Cc1nc(Cc2ccccc2F)no1)Cc1cccc2ncccc12,"inconclusive [inhibitor, single point]",
Cn1cnc2c(=O)oc3ccc(S(=O)(=O)N4CCN(c5cccc(Cl)c5)CC4)cc3c21,,inactive: -5.67%
CC(C)c1ccc(NC(=O)COC(=O)c2ccc(CN3CCCC3=O)cc2)cc1,,inactive: -5%
C(=N/Nc1nc(-c2ccccc2)cc(-c2ccccc2)n1)/c1cccnc1,"inconclusive [inhibitor, single point]",
Cc1ccccc1C(=O)N1CCC(C(=O)Nc2ccc(S(=O)(=O)N3CCOCC3)cc2)CC1,"inconclusive [inhibitor, single point]",
CC(C)c1ccc(CN2CCN(S(=O)(=O)c3ccc(Cl)s3)CC2)cc1,"inconclusive [inhibitor, single point]",
CC(=O)c1ccccc1NC(=O)COc1ccc(N(C)S(=O)(=O)c2ccc(C)c(C)c2)cc1,active: 20.6 µM,
CN1CCN(c2ncnc3ccc(-c4ccccc4Cl)cc23)CC1,active: 16.4 µM,
C[C@]12c3[nH]c4ccccc4c3CCN1C(=O)C(CC(=O)NCC13CC4CC(CC(C4)C1)C3)C[C@@H]2C(=O)N1CCOCC1 (some centres undefined),active: 16.4 µM,
Fc1ccc2c(c1)NC(c1ccncc1)=NC(c1cccs1)=N2,"inconclusive [inhibitor, single point]",
Cc1oc(-c2nc3ccccc3n2C)cc1C(=O)c1ccccc1,active: 16.4 µM,
O=C1[C@H]2[C@@H](c3ccccc3)N[C@]3(CCCN(Cc4ccc(Cl)cc4)C3=O)[C@H]2C(=O)N1Cc1ccccc1,active: 23.1 µM,
COC(=O)C1C(=O)CC(C)(O)C(C(=O)OC)C1/C=C/c1ccccc1 (centres undefined),,inactive: 9.91%
OC(CN1CCN(Cc2ccccc2)CC1)c1ccccc1 (centres undefined),,inactive: 8.33%
C/C(NCCc1ccccc1)=C1/CCOC1=O,,inactive: -3.33%
CC(C)(C)c1ccc(C2C3=C(CCCC3=O)NC3=C2C(=O)c2ccccc23)cc1 (centres undefined),"inconclusive [inhibitor, single point]",
CCN1CCN(c2cc(C)c3cc(NC(=O)Cc4ccccc4OC)ccc3n2)CC1,,inactive: 9.41%
COc1cc(C(=O)/C=C/Nc2ccc(NC(C)=O)cc2)cc(OC)c1OC,,inconclusive: -32.9% [inhibitor]
COc1ccccc1C1CCN(Cc2c(C)[nH]c3ccccc23)CC1,active: 4.61 µM,
O=C(CNS(=O)(=O)c1ccc(Cl)cc1)NNC(=O)c1cccnc1,"inconclusive [inhibitor, partial curve]",
O=C(NNC(=O)c1c(O)c2ccccc2[nH]c1=O)c1ccccc1,"inconclusive [inhibitor, single point]",
O=C(NC1CCS(=O)(=O)C1)c1c(NC(=O)C2COc3ccccc3O2)sc2c1CCCC2 (centres undefined),,inactive: -17.7%
CC(=O)c1ccc(S(=O)(=O)N(C)CC(=O)NCC2CCCCC2)cc1,,inactive: 5.51%
CN(C)N1C(=O)CC(N2CCCCC2)C1=O (centres undefined),"inconclusive [inhibitor, single point]",
Cc1cc(NC(=O)c2cc(Cl)ccc2Cl)no1,"inconclusive [inhibitor, single point]",

Compound,Potency,"activity change, negative = growth inhibition"
COc1ccc(CCN(C)S(=O)(=O)c2cn(C)c(=O)n(C)c2=O)cc1OC,,inactive: -6.31%
c1ccc(Cn2nnc3c(NCC4CC4)ncnc32)cc1,"inconclusive [inhibitor, single point]",
Cc1ccccc1OCCN1CCCC1,,inactive: -14.5%
CCOc1ccc(S(=O)(=O)N2CCN(C)CC2)c(C)c1C,"inconclusive [inhibitor, single point]",
CCOC(=O)c1cc(-c2cccc(O)c2)oc1C,"inconclusive [inhibitor, single point]",
O=C(Cc1ccc(Cl)cc1)NCC(=O)N1CCCCC1,,inactive: 2.06%
CCOC(=O)/C(C#N)=C/c1cn(CCOc2ccc(OC)cc2)c2ccccc12,active: 14.6 µM,
COC(=O)c1cc2occc2n1Cc1nc(-c2ccc(C)cc2)oc1C,"inconclusive [inhibitor, single point]",
COc1ccc(CN2CCNC(=O)C2CC(=O)NCCCC2CCCC2)c(F)c1 (centres undefined),"inconclusive [inhibitor, partial curve, poor fit]",
CCCCCCCCN1C(=O)[C@H](CC(=O)NCC2CCCCC2)C[C@@]2(C(=O)OCC)CCC=C12,active: 16.4 µM,
O=C(CSCc1ccco1)NC1CCCC1,,inactive: -2.52%
CCCC(=O)N1CCC1(C)C(=O)NS(=O)(=O)c1ccc(OC)cc1 (centres undefined),"inconclusive [inhibitor, full curve, poor fit]",
O=C(NCc1ccc(F)cc1)C1CCC(=O)N1C1CCCCC1 (centres undefined),,inactive: -9.75%
Cc1cccc(-n2nc([N+](=O)[O-])c(=NC3CCN(Cc4ccccc4)CC3)n2O)c1,active: 8.2 µM,
CC(=O)c1cnc2c(C(=O)O)cnn2c1C,,inactive: 6.71%
Cc1ccc(S(=O)(=O)N2[C@H](CC(=O)c3cccc4ccccc34)OC[C@@H]2C(C)C)cc1,"inconclusive [inhibitor, single point]",
COc1ccccc1CC(=O)Nc1ccc(-c2nnc(-c3ccco3)o2)cc1,"inconclusive [inhibitor, single point]",
CCNC(=O)C1(C)CCN(C(=O)C(c2ccccc2)c2ccccc2)C1 (centres undefined),,inactive: 3.1%
Cc1nc(N2CCN(C)CC2)[nH]c(=O)c1Cc1cccc2ccccc12,"inconclusive [inhibitor, single point]",
CC(OC(=O)/C=C/c1ccco1)C(=O)NC1CCCCC1 (centres undefined),,inactive: -19.2%
N#Cc1cccc(NC(=O)N2CC[C@@]3(CCCN(S(=O)(=O)c4ccccc4)C3)C2)c1,"inconclusive [inhibitor, single point]",
COc1ccc(CN(CC(=O)NC2CCCC2)C(=O)c2ccc(-c3ccccc3)[nH]2)cc1,,inactive: -28.2%
CC(c1n[nH]c(=S)n1-c1ccc(Cl)cc1)N(C)C (centres undefined),,inactive: -2.74%
COc1ccccc1NC(=O)C(C)Sc1nc2ccccc2c(=O)n1CC1CCCO1 (centres undefined),"inconclusive [inhibitor, single point]",
CCOC(=O)C1(CCOc2ccccc2)CCN(CCCn2cccn2)CC1,,inconclusive: -30.8% [inhibitor]

Compound,Potency,"activity change, negative = growth inhibition"
CC1CCCCN1S(=O)(=O)c1ccc(N(C(=O)c2cnccn2)C(C(=O)NC2CCCC2)c2cccs2)cc1 (centres undefined),"inconclusive [inhibitor, single point]",
Cc1ccc(S(=O)(=O)N(CC(=O)NCC2CCCO2)Cc2cccc(C)c2)cc1 (centres undefined),,inactive: -15.5%
CCOC(=O)c1c(S(=O)(=O)N2CCCC2)c(C)n(C)c1C,"inconclusive [inhibitor, single point]",
CCNc1ncc2nc(-c3cn(C)c4ccccc34)c(=O)n(-c3ccc(OC)cc3)c2n1,"inconclusive [inhibitor, single point]",
O=C(c1ccc(S(=O)(=O)N2CCCC2)cc1)N1CCN(c2ccccc2F)CC1,"inconclusive [inhibitor, partial curve]",
Oc1ccccc1Nc1ncnc2c1oc1ccccc12,,inactive: -20.5%
O=C(NCc1ccc(Cl)cc1)C1CCCN(c2ncnc3c2nc2n3CCCCC2)C1 (centres undefined),"inconclusive [inhibitor, single point]",
O=C(CN1CCN(C(=O)C2CCN(C(=O)/C=C/c3ccccc3)CC2)CC1)Nc1ccccc1Cl,"inconclusive [inhibitor, single point]",
Cc1ccc(S(=O)(=O)NC(C)CCc2ccccc2)cc1 (centres undefined),,inconclusive: -34.2% [inhibitor]
CCN(CC(=O)Nc1ccc(NC(C)=O)cc1)C(=O)CSC(=S)N1CCCC1,"inconclusive [inhibitor, single point]",
COc1cc(=O)n2c(c1C(=O)N(C)Cc1nonc1C)CCN(Cc1cc(C)c(C)cc1C)CC2,"inconclusive [inhibitor, single point]",
CCc1ccc(NC(=S)N(Cc2ccccc2)Cc2ccccn2)cc1,active: 11.6 µM,
COc1ccc(C(OCCN2CCC[C@@H](C(=O)O)C2)(c2ccc(OC)cc2)c2ccc(OC)cc2)cc1,"inconclusive [inhibitor, single point]",
CCCCN(C(C)=O)c1c(CC)nc2ccc(C(=O)Nc3cccc(OCC(=O)N(C)C)c3)cn12,"inconclusive [inhibitor, single point]",
CCc1ccc(N(CC(=O)NC(C)(C)C)C(=O)CCC(=O)Nc2ccccn2)cc1,,inactive: -18.9%
COCC(=O)N1CCC(Oc2ccc(C(=O)N(C)C3CCCCC3)cc2)CC1,,inactive: -24.6%
CCCCOCCCNC(=O)C1CCCCC1,,inactive: -4.93%
O=C(Nc1ccncc1)c1cc(-c2ccccn2)nc2ccccc12,,inactive: 12.1%
O=C(NC1CCCCC1)C(c1ccc2ncccc2c1)N(Cc1ccc2c(c1)OCO2)C(=O)c1ccc2c(c1)OCCO2 (centres undefined),"inconclusive [inhibitor, single point]",
COc1ccc(C(=O)Nc2cccc3nc(C)ccc23)c(OC)c1,"inconclusive [inhibitor, single point]",
O=C(COC(=O)c1ccc(O)cc1)Nc1ccc2c(c1)OCCO2,active: 10.3 µM,
Cc1ccc(NC(=S)NC(=O)C2CCC2)cc1C,"inconclusive [inhibitor, single point]",
CCOC(=O)CCCCC1C(CCCC(=O)OCC)C=NN1C (centres undefined),"inconclusive [inhibitor, single point]",
NNC(=O)c1cc(O)c(O)c(O)c1,active: 14.6 µM,
